Laboratory results reported in paper PMC10726135.
The other results are listed elsewhere or left out. At the low end of the ranking, values are background and their order means little. The protein was read in a cell extract, so binding may be indirect.

target: T1, HNF4alpha2 (COS-7 nuclear extract) (UniProt P41235); assay: protein-binding microarray; conditions: COS-7 nuclear extract on double-stranded Agilent 4x180k PBM; binding buffer, salt, pH and temperature not given; high values mean tight binding; double strand, one strand shown; sequences stand for … in …GCCTAGGGAGATTAGAGTATCGGTCGA
T1 sequence: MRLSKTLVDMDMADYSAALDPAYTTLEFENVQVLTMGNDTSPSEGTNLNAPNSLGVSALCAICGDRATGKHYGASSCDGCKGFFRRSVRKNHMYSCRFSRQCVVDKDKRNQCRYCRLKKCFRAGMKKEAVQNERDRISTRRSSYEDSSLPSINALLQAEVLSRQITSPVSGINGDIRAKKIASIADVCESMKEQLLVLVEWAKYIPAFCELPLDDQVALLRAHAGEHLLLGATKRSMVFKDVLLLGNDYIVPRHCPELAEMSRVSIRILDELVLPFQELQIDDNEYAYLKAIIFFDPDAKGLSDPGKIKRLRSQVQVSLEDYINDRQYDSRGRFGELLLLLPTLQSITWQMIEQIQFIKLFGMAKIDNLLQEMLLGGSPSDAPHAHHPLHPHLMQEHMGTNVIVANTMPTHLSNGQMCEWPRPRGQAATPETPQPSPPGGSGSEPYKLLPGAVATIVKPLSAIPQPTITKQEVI

Sequence	binding signal (log2 normalized intensity)
ATTGAGGCCAGCAAAGGGCAAGTAAATGTG	0.468
TGTTTGCAGATGGTTTCATCTGGTTTCTGT	1.9
GATCAGGGCCCCTTCCTGGGGGAGTTTCCT	-1.26
AGGAGTCCACTGTGTTCTTGTTTGCTAAGT	1.48
GGATGGCCATTGTTCATACTGCAGCTCTGC	-1.21
TCCCAGCCCCTAGCCCTAAGCAGGCACATT	2.47
TTCTGATTTGATAAGATGTGTAAAACACAA	1.1
TTTGGGCATACAAAACAACCACTCTTATCA	-1.11
TTGGTCTGCTGAGTCTCATGATTAGATTGA	0.746
AAGGCTGTTTGCACCGTGTGCTTTGTAGCA	0.242
ACTTTGACCTAGAAGCCAGGGACCAGGAAG	-1.2
TTTCAGTGCCCTTTGAGATTTGCATTCATG	1.92
AGAGGGCCTCTAGCCCAATATTTGCTTACC	-1.14
ATCAGAGATGGATTACATGGGAGATAGAGC	-1.16
GATAAGGGCCACAGATGGCCTCACTCGGTG	-1.22
AATTTGTCTAGCGCAAATGATCAAAGGTTG	3.72
ATCTGCAAATGCTTCTCCTGGCTTTAGATA	-0.74
GCTGAGGCCCAGGAAGCTCCAGCGGGGTTT	-1.18
CTCTGGCCACTGCAGGGAGGACAGACTCTG	-0.749
TATCAGCTTTGAGACACCTGGCCAAGTACA	-1.09
CACATTCCTAGACCTTTGACCTTTATACCT	7.82
TCTCAGGGTCCACATTCCAGGAATATTCAG	0.532
TCCAAAGTTCTGAATGAGCAGACTGAGTTG	0.444
ATATGAAAGAGCCATGGACTGCTGACCTTT	6.32

Sequence	binding signal (log2 normalized intensity)
TCCTCCCCTCCCCTCCCCCCACTCAAAATA	6.79
TTGATGCCTGTTGCTCAGAATTACTGACTC	0.588
GAACTGAGTTTAGAATTTGAACTATGGTCA	4.54
CATGGGCTGTCACCTTTACCCCCACTCTCC	4.46
GCTCTGGGCTAGTCCCTGAGTATTATCTTT	0.693
CTTATACTTGAGGTATGATGCATCCTGAGG	1.03
TCTAACAGCTGATGAGGCACCAACACTTCC	-1.1
TAAGTGACCCAGGAGGAGAAGGGTGGGAAT	-1.12
AAGACTTTGGACTTTGGACCTGAGGCTTTT	9.84
CCTATGAGCCAAACACCATGCTAGGCTTCT	-1.04
AGACATCACCTGCTCATTGACCCTTAGGCC	3.72
ACCTTTGCCTTCTTGACATCTCTCTCTGCA	1.17
ATTGAGAAAGATTAAGAGGCTACAACCAGA	-1
TGACAAAATAACGAAGGCATTCTTAACAAA	-1.07
ACAATTTGAGGGGTCAAGAAGACCTGGGCT	-1.08
TACAAAGGTGACTTGCCCAGACACACCTGC	-1.14
TGGATGGATCCGCAGCCAGGGCTGTTTTCT	-1.12
CCTCCCCCCAGTTCCCTGGGTCGCCAAGCC	3.55
GGGAGAGGAGTTTGTTCACCCACCAGAGGG	-1.08
GGTCCTCTGCTGCCCTCTAGGGTTGCCCAG	0.95
AGTCCCTGTCCCTTCTTGGCAAGTTAATGT	1.94
AGGAGGGAGGAGCATTTCACAGAAATTTTT	-1.11
TCTTCTTAGCCTTTGAACCCCACACCTCCC	5.02
AAATCCCAAGCAGTGATATTCTCTCGTCAC	-0.223

Sequence	binding signal (log2 normalized intensity)
TCCTCTCCCAGCCCCTAGCCCTAAGCAGGC	2.79
CCACAGAAAAGGCAGCAGCTTGGAATGTCA	-1.31
CAATAAGGACTTTGGACCGTCTTGTGGATC	5.92
TTTGTACACACAGCACTGCAAACAGTGAGC	-1.13
TGGTTTTATCAGCTGAGGCCATTGCCTTTC	0.817
GGGAGGAGGGGGGAGGGTCGGCAACGGTGA	-0.986
GTCAAACCTTTGACCCTTTATAATCCCCTA	4.25
TTACTGAACGCTGCGCATACCATATGCATT	-1.16
GTGCCTGTGCATACCTGGAATTGTACACAT	0.0805
ATCTTATCAGCAAGGGCATTTGCGTAGGCT	-0.0469
GGGCGAAAAAGACGCGGTCTCAGTTAACGG	-1.19
GAAAGAGACCTTTGACATCACCTAACTTGT	1.8
GGTACAGCAGCATAAAGGACTTTCAACCCT	4.04
GATCTTTGACCGCTGCCTCCCACCCCCACG	5.37
GTCCTCACCCAGAACTTTGACCGTTTGATT	3.5
TGGGCCTTCAGCTTGAAAACACAACAAAAG	-1.19
TGTTAGCAGAGCAATTACTCATGTCCTCAG	-0.707
TATTTTATAGAAAAGGAAAGTGAGGCCTGG	0.051
AGGATTATAGTTTATCTACCTTTGTACCTT	5.34
TTTAGCAGCACCATCCTACAGGGTATGAAT	-1.04
TTATCTTCAGGTTTGCTAATATCTGATGTT	1.19
CCAAGGCGTATGAAGCTTTGACCCTGTTTT	3.22
GAGGCCATATCACAGGAGAAAACAGCACAA	-1.09
TGGTTCACACCCCACGTACATTGCACCCTC	4.17

Sequence	binding signal (log2 normalized intensity)
TCCATAATCCCCGAATGTCCAGACTGTGCA	2.03
ATACACTTTCCGTACTTTTCATCTGATCAG	1.24
ACACTCATCAGGTGAGATAAGAAGACTCCA	-1.16
GGATAAGCATGGAGATGAGTGGGTTCACTT	1.24
TGGGCCACCTGCCATCATTTTCTGACCAGG	-0.57
GTCTTAATAAGATAATAAGTGACCCAGGAG	1.64
ACCCAGGCAAAGTCCAGAAATAGCATCACG	0.911
GATAAGGAACTGTTATCAAGTGAGAAACCA	-1.16
CCTGCCAGCTGTTATGAGTCTGTTGTCTAA	1.42
GTTGGACTGAGGACCACATGAGTAAACAAG	-0.371
ATTTCAAAGGGAGCATATGTATGTCAGAGT	1.64
TTCTCTGGTCTGCGGTTGTGTAGACGCTCT	1.11
ATGAACTTTGACCCACCTACATTGATATTC	4.81
ACTAGGCTACATGATACAGCCTTTTGCCCC	3.4
GAAGTGAAGTTACAAAGGTCACGCTCCTGT	4.09
AAGAGAGAGTAGCTCCAAAAGGTGGACAAG	-0.956
ATTTGATAAGGGTATGGATTCTGGGACCCA	-0.26
CCTCCCGGTCACTACAACAACGGCGGCCCA	-1.08
GAGTAACCTGCTTGTTTTCCCAACAGGTGT	1.22
ACTGGATTCTCAGCCTCACCCTGGTGCTGC	-1.21
CCATTCTTGAGGACAGGCCAAATCCAGTAA	-0.994
